The structures appear in SMILES notation. Among all 48,000 compounds or so, about 1,200 (2.5%) were called active. Roughly 2% stayed inconclusive and do not appear here.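 The calls were made as follows: active = activation of at least 60% and not above a set upper limit (about 1 call in 100 departs from these limits); inconclusive = activation of 40% to 60%, or above that upper limit; inactive = activation under 40%.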 Some of the results follow.

The assay has as its target Probable G-protein coupled receptor 32 (Homo sapiens) (UniProt O75388). Description: qHTS for Agonists of Human Resolvin D1 Receptor DRV1. Also: 0% is about no effect. The following applies: CHO-K1 GPR32 beta-arrestin PathHunter luminescence, 90 min; at 76.9 µM; hits give high values; zero percent set by DMSO-only wells. The method in brief: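 Agonism was scored as beta-arrestin recruitment to ProLink-fused GPR32 in stably transfected CHO-K1 cells, giving a chemiluminescent beta-Gal signal; compounds were incubated 90 min at 37 °C.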
UniProt O75388, sequence (O75388 whole entry, looked up, the tested form may be a part): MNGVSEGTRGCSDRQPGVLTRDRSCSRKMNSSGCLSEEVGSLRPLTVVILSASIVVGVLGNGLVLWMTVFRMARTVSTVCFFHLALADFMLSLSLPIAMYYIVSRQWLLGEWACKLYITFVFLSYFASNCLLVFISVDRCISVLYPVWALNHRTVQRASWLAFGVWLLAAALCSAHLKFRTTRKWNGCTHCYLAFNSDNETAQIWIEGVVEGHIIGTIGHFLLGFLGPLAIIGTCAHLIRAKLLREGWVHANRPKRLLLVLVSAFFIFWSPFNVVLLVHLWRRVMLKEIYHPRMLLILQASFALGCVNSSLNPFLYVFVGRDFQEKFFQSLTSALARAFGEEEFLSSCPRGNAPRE
A general note: qHTS replaces the single test concentration by a dilution series.
Turning to `CCOC(=O)CSc1nc2ccc(NC(=O)c3cccc(F)c3)cc2s1`, the activation was active: 72.6%. The result for `O=C(CCn1cccn1)Nc1ccc(Br)cc1F` reads inactive: -7.8%. As to `O=C(COCc1cc(-c2ccc(F)cc2)on1)Nc1cc(F)ccc1F`, the activation is inactive: -5.04%. Then `CCOc1ccc(NS(=O)(=O)c2ccc3[nH]c4c(c3c2)CCCCC4)cc1`, with active: 65.6%. The result for `O=S(=O)(NCc1nc2cccnc2n1Cc1ccccc1Cl)c1ccc2c(c1)CCCC2` reads inactive: -19.6%. Take `Cc1cccc(-c2nc3c4ccccc4nc(NCCc4ccccc4)n3n2)c1`: the activation was inactive: -15.2%. The result for `Nc1ccn([C@@H]2O[C@H](CO)[C@@H](O)C2(F)F)c(=O)n1` reads inactive: -12.4%. `COc1cccc(NC(=O)CN(CCc2ccccc2)S(=O)(=O)c2ccc(Cl)cc2)c1`: the activation was inactive: -5.94%.

Consider `Cc1nc2ccccc2n1CCc1nc2c3ccccc3nc(SCc3ccc(C#N)cc3)n2n1`, for which the activation was inactive: -1.48%.

With `O=c1c(NCc2cccs2)nccn1-c1ccc(F)cc1`, the activation is inactive: 2.59%. For the compound `CCN(CC)CCCNC(=O)Cc1csc2nc(-c3ccc(Cl)cc3)cn12`, the activation is inactive: -6.14%. The result for `CCOc1ccccc1NS(=O)(=O)c1ccc2c(c1)oc(=O)n2C` reads inactive: -20.3%; that for `Cc1cccc(CCNC(=O)c2cc3c(=O)n(C)c4ccccc4c3n2C)c1`, inactive: -2.73%. Then `O=C(CN1C(=O)CCn2nc(-c3ccccc3)cc21)NCc1ccc(Cl)cc1`, with inactive: -16.4%; and `Cc1cc2c(n1-c1ccc(C(=O)NCc3ccccc3Cl)cc1)CCCC2`, with inactive: -14.3%; and `COc1ccccc1N1CCN(C(=O)c2c(C)oc3ncn(C)c(=O)c23)CC1`, with inactive: 1.37%. The result for `O=C(CCSCc1ccccc1Cl)NCc1ccc(F)cc1Cl` reads inactive: -24.6%; that for `CCc1cc2c(cc3c(=O)n(CCCC(=O)NCc4cccc(Cl)c4)ncn32)s1`, inactive: 1.15%; that for `Cc1cccc(N2CCN(C(=O)c3noc4c3COc3ccc(C)cc3-4)CC2C)c1` (centres undefined), inactive: 39.9%. As for `COc1ccc(NC(=O)NC2COc3ccccc3C2)cc1Cl` (centres undefined), the activation is inactive: -6.66%. For the compound `Cc1ccc(CN2C(=O)c3ccccc3CC2(C)C(=O)NC2CCCCC2)cc1` (centres undefined), the activation was inactive: -8.48%. The result for `CC(C)c1cnc2c(c1SCC(=O)NCc1ccccc1Cl)c(=O)n(C)c(=O)n2C` reads inactive: -19.9%; that for `O=C(c1ccc2c(c1)N(Cc1cccc(F)c1)C(=O)c1ccccc1S2)N1CCCC1`, inactive: -12.5%; that for `COc1ccc(C(CC(=O)Nc2ccc(C(C)=O)cc2)N2Cc3ccccc3C2=O)cc1` (centres undefined), inactive: -20.3%. Then `Cc1cccc2c1-c1sc(C(=O)N(C)c3cccc(Cl)c3)cc1CO2`, with inactive: -39.6%; and `CSc1ccc(CCNC(=O)CCc2c(C)nc3ncnn3c2C)cc1`, with inactive: 1.71%.

As to `CCOc1ccccc1C(=O)NC1(C(F)(F)F)C(=O)Nc2c1c(=O)[nH]c(=O)n2-c1ccc(F)cc1` (centres undefined), the activation was inactive: -5.08%. Then `Cn1nnnc1SCCNCc1cc(Br)ccc1OCc1ccccc1Cl`, with active: 75.1%; and `CN1C(=O)CC(c2ccccc2)C1=O` (centres undefined), with inactive: -16.8%; and `COc1ccccc1N1CCN(CCN(C(=O)C2CCCCC2)c2ccccn2)CC1`, with inactive: -16.9%. The result for `COC(=O)c1c(-c2cccs2)csc1NC(=O)COc1ccc(C)cc1` reads inactive: -4.74%; that for `COc1cc(NC(=O)CSc2ccc(-c3ccccn3)nn2)cc(OC)c1`, inactive: -13.1%. For `O=C(Cc1ccc(-c2ccccc2)cc1)NCCS(=O)(=O)N1CCN(c2ccccc2)CC1`, the activation was inactive: -11.7%. For `O=C(CSc1nc(-c2ccc(F)cc2)[nH]c1-c1ccc(F)cc1)Nc1ccc2c(c1)OCO2`, the activation is inactive: 9.38%.

Consider `COc1ccc(-c2cc(C(F)(F)F)nc(SCC(=O)NCC(C)C)n2)cc1OC`, for which the activation is inactive: -18.3%. Regarding `Cc1ccc(CNC(=O)c2ccc(CS(=O)Cc3cccc(Cl)c3)o2)cc1` (centres undefined), the activation is inactive: -10.6%. Take `Cc1ccn2c(=O)cc(COc3cccc(NC(=O)Nc4cccc(Cl)c4C)c3)nc2c1`: the activation is inactive: -0.532%. Then `COc1ccccc1NC(=O)C1=C(C)Nc2nc3ccccc3n2C1c1cccc(OC)c1OC` (centres undefined), with inactive: -4.31%. For `COc1ccc(NC(C)=O)cc1NC(=O)CN1CCN(c2ccc(F)cc2)CC1`, the activation was inactive: -7.26%.

With `O=S(=O)(c1cccc2ccccc12)N1CCN(c2ccc(Cl)c(Cl)c2)CC1`, the activation was inactive: 0.432%.

Consider `CCOc1cc(C(=O)NCC(c2ccc(N(C)C)cc2)N2CCOCC2)cc(OCC)c1OCC` (centres undefined), for which the activation is inactive: 2.17%. The result for `O=C(Cn1cc(S(=O)(=O)c2ccccc2)c(=O)c2cc(Cl)ccc21)Nc1ccc2c(c1)OCO2` reads inactive: -7.11%; that for `Cc1cc(Nc2cccc(C(F)(F)F)c2)nc2ccc(NC(=O)c3cccc(Cl)c3)cc12`, inactive: -10.1%; that for `O=C(NCCCN1CCOCC1)c1ccc2c(c1)N(Cc1cccc(Cl)c1)C(=O)c1ccccc1S2`, inactive: -13.1%. Then `CCOc1ccc(CNCc2c(C(=O)O)c(C)n(Cc3c(F)cccc3Cl)c2C)cc1OC`, with inactive: 8.41%; and `CC1CCCN(S(=O)(=O)c2ccc3c(c2)c(=O)nc2ccccn23)C1` (centres undefined), with inactive: -17.1%; and `CCCCN(CCCNC(=O)c1cc(Nc2ccc(OC)c(OC)c2)nc2ccccc12)c1ccccc1`, with inactive: 10%. On to `Cc1ccc(-c2cn3c(n2)sc2cc(C(=O)NCCCc4ccccc4)ccc23)c(C)c1`, for which the activation is inactive: -30.9%. `CC(=O)O[C@@]12CO[C@@H]1C[C@H](O)[C@@]1(C)C(=O)[C@H](O)C3=C(C)[C@@H](OC(=O)[C@H](O)[C@@H](NC(=O)OC(C)(C)C)c4ccccc4)C[C@@](O)([C@@H](OC(=O)c4ccccc4)[C@H]21)C3(C)C`: the activation is inactive: 19.9%. Then `CC(C)c1ccc(S(=O)(=O)N2CCC(N3CCN(Cc4ccccc4)C(=O)C3=O)CC2)cc1`, with inactive: 5.63%. Then `CCCCN(C)CCNC(=O)CN1C(=O)CSc2ccc(S(=O)(=O)N3CCOCC3)cc21`, with inactive: -4.98%; and `COc1ccc(C2=C(Nc3ccc(C)cc3C)c3ccccc3C2=O)cc1`, with inactive: -20.4%. Consider `CCc1nn2c(=O)c(S(=O)(=O)Nc3ccc(Cl)cc3)c(C)nc2s1`, for which the activation is inactive: -8.48%. The result for `Cc1ccccc1Nc1c(-c2cccnc2)nc2ccc(Cl)cn12` reads inactive: -25.6%; that for `CC(CCc1ccccc1)NC(=O)Cn1c(=O)nc(-c2ccccc2)c2ccccc21` (centres undefined), inactive: 3.05%; that for `CCOC(=O)c1cnc2c(C)c(Cl)ccc2c1Nc1ccc(N2CCOCC2)cc1`, inactive: -28%. Consider `Cc1ccc2oc(=O)n(CCCOc3ccccc3Cl)c2c1`, for which the activation is inactive: -30.9%.

Turning to `Cc1cc(C)c(S(=O)(=O)NCC(c2ccc(N(C)C)cc2)N2CCOCC2)c(C)c1` (centres undefined), the activation is inactive: -32.5%. In the case of `COc1ccccc1-c1noc(-c2ccc(NCC3CCCO3)c([N+](=O)[O-])c2)n1` (centres undefined), the activation is inactive: -13.2%. Then `CCc1cccc(NC(=O)CN(C)S(=O)(=O)c2ccc3c(c2)CCCN3C(C)=O)c1`, with inactive: 24.9%. Then `CCc1ccc(NC(=O)CN2C(=O)C3(SCC(=O)N3c3ccc(F)c(F)c3)c3ccccc32)cc1` (centres undefined), with inactive: 5.99%.

`Cc1cccc(C2CC(=O)Nc3cc4c(cc32)OCO4)c1` (centres undefined): the activation is inactive: 4.27%. As to `CCc1nc2nc(C)cc(Nc3cccc(C)c3C)n2n1`, the activation is inactive: 10.4%.

As for `CC(C)c1ccc(OCC(=O)N(Cc2cccs2)C2CCS(=O)(=O)C2)cc1` (centres undefined), the activation is inactive: -6.84%. The result for `COc1ccc(CNC(=O)CCc2c(C)c3cc4c(C)c(C)oc4cc3oc2=O)cc1OC` reads inactive: -11.2%. Then `Cc1cc(C)n(C(C)CC(=O)Nc2ccc(C)c(N(C)C)c2)n1` (centres undefined), with inactive: -11.8%. The result for `C=C(C)CSc1nc(-c2ccccc2)cc(-c2ccc(OC)cc2)c1C#N` reads inactive: -19.7%; that for `COC(=O)c1ccc(NC(=O)CN2C(=O)CC(c3ccccc3)Sc3ccccc32)cc1` (centres undefined), inactive: -5.52%.

Take `O=C(NC1CCCC1)c1ccc2c(=O)n(Cc3ccccc3)c(SCc3cccc(F)c3)nc2c1`: the activation is inactive: -5.34%.

Consider `CCN(CC)c1ccc(NC(=O)CCCN2C(=O)C(c3ccccc3)Oc3cccnc32)c(C)c1` (centres undefined), for which the activation is inactive: 37.8%. The result for `CCOc1cc(Cl)c(S(=O)(=O)n2ccnc2)cc1Cl` reads inactive: 14.1%; that for `Cc1nnc(N2CCC(C(=O)NCCC(C)C)CC2)c2nn(-c3ccc(Cl)cc3)c(C)c12`, inactive: -7.66%. As for `CCC(C(=O)N1CCN(c2ccccc2)CC1)n1c(C)c2cnn(-c3ccccc3)c(=O)c2c1C` (centres undefined), the activation is inactive: 7.48%. Then `Cc1ccc(N2CC(C(=O)Nc3ccc(N(C)C)cc3)CC2=O)cc1Cl` (centres undefined), with inactive: -4.19%; and `CSc1ccc(-c2nnc(NC(=O)c3ccc4c(c3)OCCO4)o2)cc1`, with inactive: -16.1%.

With `Fc1ccccc1N1CCN(c2nc3ccccc3c3nc(-c4ccccc4)nn23)CC1`, the activation is inactive: -5.51%. With `CC(=O)Nc1cccc(-n2cc3c(c2-c2ccccc2Cl)c(=O)n(C)c(=O)n3C)c1`, the activation is inactive: -14.9%.

As for `O=C(CCn1ccc2cc(S(=O)(=O)N3CCCC3)ccc21)NCc1ccccc1Br`, the activation is inactive: -14.2%. Then `CC(C)Oc1ccc(C(=O)Nc2c(C(=O)Nc3cccc(F)c3)oc3ccccc23)cc1`, with inactive: -4.7%. The result for `O=C(CN1C(=O)c2cccnc2Oc2ccc(Cl)cc21)Nc1cccc(C(F)(F)F)c1` reads inactive: -18.2%; that for `COc1ccc(C)cc1Nc1cc(C)nc(C)n1`, inactive: -8.32%; that for `CCOc1ccc(NC(=O)CCCOc2cc(=O)n(C)c3ccccc23)cc1`, inactive: -0.0397%. The result for `Clc1ccccc1CSc1nnc(C2CCNCC2)o1` reads inactive: -3.73%; that for `COc1ccc(N2CC(NC(=O)C3CCCCC3)CC2=O)cc1OC` (centres undefined), inactive: 4.36%.

The values above are taken from PubChem BioAssay AID1346428 (National Center for Advancing Translational Sciences (NCATS), 2018).
